According to US5663181A, “Naphthyridine derivatives, their methods of preparation and pharmaceutical compositions in which they are present, useful especially as antiproliferative drugs” (Laboratoires UPSA, priority 1993, dated 1997):
The name of at least one read-out is uncertain.

The compounds below were run on balb c 3T3 fibroblasts (assay: Inhibition of PDGF-stimulated balb c 3T3 fibroblast proliferation (3H-thymidine incorporation)). Conditions: 1E - 6M.
Format: cell-based
Experimental: Measurement of inhibition of the balb c 3T3 fibroblast proliferation induced by a growth factor […]
Inhibition of the cell proliferation induced by a growth factor (for example PDGF) is evaluated by measuring the ^3 H-thymidine incorporation into balb c 3T3 fibroblasts.
The balb c 3T3 fibroblasts are cultivated at 37° C. with 5% of CO2 up to the point of subconfluence and are then placed for 24 hours under rest conditions in a serum-impoverished medium. They are subsequently pretreated for one hour with the test molecule and then stimulated for 24 hours with a growth factor (for example PDGF). ^3 H-Thymidine is incorporated over the last 2 hours. All these steps are performed at 37° C. with 5% of CO2.
The reaction is terminated by sucking off the reaction medium, detaching the cells and then filtering the lyzed cells through glass fiber filters.
The results are expressed as the percentage inhibition of the stimulation of ^3 H-thymidine incorporation due to the action of the growth factor.
With `N#CC(=Cc1cc2cccnc2n(-c2cc(Cl)cc(Cl)c2)c1=O)c1cccnc1` [Example 78, 3-[1-(3,5-dichlorophenyl)-1,2-dihydro-2-oxo-1,8-naphthyridin-3-yl]-2-(3-pyridyl)prop-2-enenitrile] the “% inhibition of the ^3 H-thymidine incorporation stimulated by PDGF in balb c 3T3 fibroblasts” value (from here on “% inhibition”) was 95%.
`N#CC(=Cc1cc2cccnc2n(-c2cc(Cl)cc(Cl)c2)c1=O)c1ccccn1` [Example 79, 3-[1-(3,5-dichlorophenyl)-1,2-dihydro-2-oxo-1,8-naphthyridin-3-yl]-2-(2-pyridyl)prop-2-enenitrile] was tested, and the “% inhibition” value was 76%.
For `COc1ccc(-n2c(=O)c(C=C(C#N)c3ccncc3)cc3cccnc32)cc1` [Example 80, 3-[1,2-dihydro-1-(4-methoxyphenyl)-2-oxo-1,8-naphthyridin-3-yl]-2-(4-pyridyl)prop-2-enenitrile], the “% inhibition” value was 24%.
With `N#CC(=Cc1cc2cccnc2n(-c2cc(Cl)cc(Cl)c2)c1=O)c1ccncc1` [Example 81, 3-[1-(3,5-dichlorophenyl)-1,2-dihydro-2-oxo-1,8-naphthyridin-3-yl]-2-(4-pyridyl)prop-2-enenitrile] the “% inhibition” value was 64%.
In the case of `COc1ccc(-n2c(=O)c(C=C(C#N)c3cccnc3)cc3cccnc32)cc1` [Example 82, 3-[1,2-Dihydro-1-(4-methoxyphenyl)-2-oxo-1,8-naphthyridin-3-yl]-2-(3-pyridyl)prop-2-enenitrile], the “% inhibition” value is reported as 55%.
In the case of `COc1ccc(-n2c(=O)c(C=C(C#N)c3ccccn3)cc3cccnc32)cc1` [Example 83, 3-[1,2-Dihydro-1-(4-methoxyphenyl)-2-oxo-1,8-naphthyridin-3-yl]-2-(2-pyridyl)prop-2-enenitrile], the “% inhibition” value is reported as 48%.
`N#CC(=Cc1cc2cccnc2n(-c2cccc(Cl)c2)c1=O)c1cccnc1` [Example 85] was tested, and the “% inhibition” value was 82%.
With `N#CC(=Cc1cc2cccnc2n(-c2ccccc2Cl)c1=O)c1cccnc1` [Example 86] the “% inhibition” value was 66%.
In the case of `Cc1cccc(-n2c(=O)c(C=C(C#N)c3ccccn3)cc3cccnc32)c1` [Example 87], the “% inhibition” value is reported as 63%.
`Cc1cccc(-n2c(=O)c(C=C(C#N)c3cccnc3)cc3cccnc32)c1` [Example 88] was tested, and the “% inhibition” value was 59%.
For `Cc1ccc(-n2c(=O)c(C=C(C#N)c3cccnc3)cc3cccnc32)cc1` [Example 89], the “% inhibition” value was 24%.
`N#CC(=Cc1cc2cccnc2n(-c2ccccc2)c1=O)c1cccnc1` [Example 93] was tested, and the “% inhibition” value was 41%.
For `N#CC(=Cc1cc2cccnc2n(-c2cc(Cl)cc(Cl)c2)c1=O)c1ccc(Cl)nc1` [Example 94], the “% inhibition” value was 65%.
`N#CC(=Cc1cc2cccnc2n(-c2cccc(C(F)(F)F)c2)c1=O)c1cccnc1` [Example 95] was tested, and the “% inhibition” value was 38%.
With `CC(C)n1c(=O)c(C=C(C#N)c2cccnc2)cc2cccnc21` [Example 100] the “% inhibition” value was 17%.
With `N#CC(=Cc1cc2cccnc2n(C2CCCCC2)c1=O)c1cccnc1` [Example 103] the “% inhibition” value was 51%.
For `N#CC(=Cc1cc2cccnc2n(-c2cccc([N+](=O)[O-])c2)c1=O)c1cccnc1` [Example 111, 3-[1,2-Dihydro-1-(3-nitrophenyl)-2-oxo-1,8-naphthyridin-3-yl]-2-(3-pyridyl)prop-2-enenitrile], the “% inhibition” value was 57%.

Same assay, conditions: 1E - 7M
With `N#CC(=Cc1cc2cccnc2n(-c2cc(Cl)cc(Cl)c2)c1=O)c1ccncc1` [Example 81, 3-[1-(3,5-dichlorophenyl)-1,2-dihydro-2-oxo-1,8-naphthyridin-3-yl]-2-(4-pyridyl)prop-2-enenitrile] the “% inhibition” value was 26%.
For `N#CC(=Cc1cc2cccnc2n(-c2cccc(Cl)c2)c1=O)c1cccnc1` [Example 85], the “% inhibition” value was 24%.
`N#CC(=Cc1cc2cccnc2n(-c2ccc(C#N)cc2)c1=O)c1cccnc1` [Example 92] was tested, and the “% inhibition” value was 29%.
In the case of `N#CC(=Cc1cc2cccnc2n(-c2ccc(O)cc2)c1=O)c1cccnc1` [Example 109, 3-[1,2-Dihydro-1-(4-hydroxyphenyl)-2-oxo-1,8-naphthyridin-3-yl]-2-(3-pyridyl)prop-2-enenitrile], the “% inhibition” value is reported as 18%.
With `N#CC(=Cc1cc2cc(Cl)cnc2n(-c2cc(Cl)cc(Cl)c2)c1=O)c1cccnc1` [Example 110, 3-[6-Chloro-1-(3,5-dichlorophenyl)-1,2-dihydro-2-oxo-1,8-naphthyridin-3-yl]-2-(3-pyridyl)prop-2-enenitrile] the “% inhibition” value was 54%.
